Test results: PubChem BioAssay AID651820 (National Center for Advancing Translational Sciences (NCATS), 2012)
The whole screen tested about 340,000 compounds, of which about 12,000 (3.5%) were called active. This list was built around the results that the source calls inconclusive (neither active nor inactive); the mix of calls is not that of the screen. Calls follow the shape of the dose curve; as a rule, active = well fitted inhibition curve with a large enough effect; inconclusive = small, poorly fitted or top-dose-only effect, or another doubt; inactive = no such curve, though single readings can be large or run the other way. Potencies of inconclusive entries are left out as doubtful fits.

Assay: qHTS Assay for Inhibitors of Hepatitis C Virus (HCV)
Settings: Huh7.5.1 HCVcc-Cre (HCVcc is cell-culture hepatitis C virus) infection, luciferase reporter, 44 h; series mostly up to 41.8 µM
Summary of the method: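 A cell-based infection assay in which seeded cells (1,000 per well) receive test compound after 4 h, are inoculated with HCVcc-Cre at approximately 0.5 moi, and are incubated 44 h before luminescence detection.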
Potency is read from the fitted curve at half-maximal effect; tags tell the direction and shape of the fitted curve.

Compound | Potency
COc1ccc(OC)c(/C=C/C(=O)OCC(=O)N2CCN(S(=O)(=O)c3ccc(C)cc3C)CC2)c1 | inconclusive [inhibitor, single point]
COc1cc(C(=O)NCCN2C(=O)S/C(=C\c3cccs3)C2=O)cc(OC)c1OC | inconclusive [inhibitor, partial curve]
COC(=O)c1cc2c(ccn2-c2ccc(F)cc2)n1CC(C)C | active: 11.2 µM
N#CC1(Nc2cccc(Br)c2)C(=O)Nc2ccccc21 (stereo not given) | inconclusive [inhibitor, partial curve]
O=C(CSc1ccc(S(=O)(=O)N2CCCC2)cn1)Nc1ccc([N+](=O)[O-])cc1C(F)(F)F | active: 12.6 µM
Cc1ccc2nc(NC(=O)C3CCCN(S(=O)(=O)c4cnc[nH]4)C3)sc2c1 (stereo not given) | inconclusive [inhibitor, partial curve, poor fit]
CC1CCN(c2ccc(NC(=O)Cc3ccccc3)cc2)CC1 | inactive
COc1cccc(/C=C2\C(=O)C(=O)c3ccccc32)c1 | inactive
Cc1ccc(Cn2cnc3c(cnn3-c3ccc(F)cc3)c2=O)cc1 | inconclusive [inhibitor, partial curve]
CCN(CC(=O)Nc1ccc2c(c1)OCCO2)CC(=O)Nc1ccc(C)c(S(=O)(=O)N(C)C)c1 | inconclusive [inhibitor, partial curve]
C/C(=N\NC(=S)NCc1ccccc1)c1cccc(Br)c1 | inconclusive [inhibitor, single point]
CN(C(=O)c1ccccc1C(=O)OCC(=O)c1ccccc1)c1ccccc1 | inactive
Cc1cc(NC(=O)CCSc2ccc(Cl)cc2)no1 | inactive
COc1cc(C)nc(-c2csc(C)n2)n1 | inactive
COc1ccc2[nH]c(O)c(N=NC(=O)c3ccc(NS(=O)(=O)c4cccs4)cc3)c2c1 | inconclusive [inhibitor, partial curve]
O=C(COc1ccc(Br)cc1Br)NC1CCCC1 | inconclusive [inhibitor, full curve]
CC1(C)CC(=O)c2cc(C(=O)O)c(=O)n(-c3ccccc3)c2C1 | inactive
COc1ccc(-c2sc3ccccc3c2C#Cc2cncn2C)cc1 | active: 3.55 µM
CCOC(=O)c1cnc2c(c(C)nn2CC)c1NCCN1CCOCC1 | inconclusive [inhibitor, single point]
COc1cc(O)c(C(CCN2CCN(c3ccccc3)CC2)c2cc(OC)c(OC)c(OC)c2)c(OC)c1 (stereo not given) | inactive
Cc1ccc(C2CC(=O)c3cnc(NC(=O)c4ccco4)nc3C2)cc1 (stereo not given) | inactive
Cc1cccc(-c2cc3nc(C)cc(NCCCN(C)C)n3n2)c1 | active: 2.51 µM
COc1ccc(Nc2ncnc3c2cnn3Cc2ccc(C)cc2)cc1 | active: 11.2 µM
COc1ccc2cc3cc(C(=O)N(C)C4CCCCC4)oc3nc2c1 | inconclusive [inhibitor, single point]
CNC(=O)c1cc(NC(=O)CCn2nc(-c3ccccc3)c3ccccc3c2=O)ccc1OC | inactive

Compound | Potency
CN(C(=O)c1cc2c(=O)n3ccccc3nc2s1)C1CCCCC1 | inconclusive [inhibitor, single point]
O=C(CSC1=NS(=O)(=O)c2cc(Cl)ccc2N1)Nc1cccc(F)c1 | inactive
N=C1SC(c2ccccc2)C(=O)N1c1ncc(Cc2ccccc2)s1 (stereo not given) | inactive
Cc1cccc(C)c1NC(=O)N1CCC(N2CCCCC2)CC1 | inactive
Cc1sc2ncnc(SCC(=O)N3c4ccccc4Sc4ccc(Cl)cc43)c2c1C | inactive
Oc1ccc(/C=N/n2c(COc3ccccc3)n[nH]c2=S)cc1O | inconclusive [inhibitor, single point]
COc1ccc(S(=O)(=O)N2CCN(CC(=O)c3ccc(O)c(O)c3)CC2)cc1 | inactive
COc1ccccc1N(C(=O)CCl)c1cn(C(C)=O)c2ccccc12 | inconclusive [inhibitor, full curve]
O=C1Nc2ccccc2/C1=C/c1ccccc1Cl | inconclusive [inhibitor, single point]
COC(=O)Cn1c(=NC(=O)c2ccc([N+](=O)[O-])s2)sc2cc(Br)ccc21 | inconclusive [inhibitor, single point]
CCOc1ccc(C2=CSC3=NCCN23)cc1 | inactive
COc1ccc2cc3cc(C(=O)NCCCN4CCC(C)CC4)oc3nc2c1 | inconclusive [inhibitor, single point]
CCN(CC)CCCNC(=O)c1cc(-c2ccc(Cl)c(Cl)c2)on1 | active: 1.41 µM
O=C(NC1=NCCS1)C12CC3CC(C1)CC(C(=O)NC1=NCCS1)(C3)C2 | inconclusive [inhibitor, partial curve]
Cc1cc(C)c(OCC(=O)N2CC=C(c3ccccc3)CC2)c(C)c1 | inactive
CCNC(=S)Nc1cc(OC)c(NC(=O)c2ccco2)cc1OC | inconclusive [inhibitor, single point]
O=c1[nH]c(N/N=C\c2ccc3c(c2)OCO3)nc2ccccc12 | inactive
N=c1c2c(-c3ccccc3)c(-c3ccccc3)n(Cc3ccco3)c2ncn1CCN1CCOCC1 | inconclusive [inhibitor, single point]
COc1ccc(COC(=O)c2ccc(N3CCCC3=O)cc2)cc1F | inconclusive [inhibitor, single point]
CSCC[C@H](NC(=O)OC(C)(C)C)C(=O)N/N=C/c1cc2ccc(C)cc2nc1Cl | inconclusive [inhibitor, partial curve, poor fit]
O=C(NCc1ccco1)c1cc2sccc2n1Cc1ccccc1 | inconclusive [inhibitor, single point]
CCCCNc1ncnc2[nH]ncc12 | inactive
Cc1ccccc1/C=C1\CCCc2ccccc2C1=O | inactive
O=C(NCCCN1CCCC1=O)Nc1ccccc1Cl | inactive
OC(CNCCc1ccc(C(F)(F)F)cc1)COc1cccc2ccccc12 (stereo not given) | inconclusive [inhibitor, single point]
